Test results as given in PubChem BioAssay AID504832 (National Center for Advancing Translational Sciences (NCATS), 2011).
About 18,000 (5.8%) of roughly 310,000 compounds were called active. Inconclusive results, whose numbers are uncertain, are shown with a selection of clear calls. Calls come from the whole dose curve; as a rule, active = well fitted inhibition curve with a large enough effect; inconclusive = small, poorly fitted or top-dose-only effect, or another doubt; inactive = no such curve, though single readings can be large or run the other way. Potencies of inconclusive entries are left out as doubtful fits.

experiment: Primary qHTS for delayed death inhibitors of the malarial parasite plastid, 48 hour incubation; conditions: P. falciparum luciferase growth in erythrocytes; series mostly up to 28.7 µM; activity change, negative = inhibition: at the top concentration
Method in brief: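 A one-generation exposure of luciferase-tagged malaria parasites in RPMI 1640/Albumax erythrocyte culture, 37 C and 5% CO2. Inhibition is inferred from decreased luminescence after adding detection reagent.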
% is set by controls: 0 for no effect and ±100 for the full control effect; potency is the fitted concentration of half-maximal effect; tags give direction and shape of the fitted curve.

Structure (SMILES)	Potency	activity change, negative = inhibition
Cc1cccc(C(=O)NCCNc2nc3cc(C)c(C)cc3cc2C)c1	inconclusive [inhibitor, single point]	
Cc1nnc(SCC(=O)NCc2ccc3c(c2)OCO3)[nH]c1=O		inactive: 37.4%
C#CCN(C(=O)c1ccc(OC2CCN(Cc3ccccn3)CC2)cc1)C1CCCCC1	inconclusive [inhibitor, single point]	
CC1(C)Oc2nc3ccccc3n2/C1=C\C#N	inconclusive [inhibitor, single point]	
CN1CCN(NC(=O)c2ccc(Br)s2)CC1	inconclusive [inhibitor, single point]	
COc1ccc(N2CCN(C(=S)NCc3ccccc3)CC2)cc1		inactive: -5.71%
OC(CNCc1ccccc1)COc1ccccc1 (stereo unspecified)	inconclusive [inhibitor, full curve, poor fit]	
N#CC1=C(SCC(=O)c2ccc(Br)cc2)NC2=C(C(=O)CCC2)C1c1ccco1 (stereo unspecified)	inconclusive [inhibitor, single point]	
O=S(=O)(Nc1cccc(-c2nnco2)c1)c1ccc(Cl)cc1	inconclusive [inhibitor, full curve]	
O=C(Nn1c(-c2ccncc2)nc2ccccc2c1=O)c1ccccc1Br	inconclusive [inhibitor, partial curve, poor fit]	
CCOc1ccc2nc(NC(=O)CSc3ccc(Cl)cc3)sc2c1	inconclusive [inhibitor, single point]	
O=C(COC(=O)c1ccc(Br)cc1)NCCN1C(=O)CSC1=O		inactive: 0%
CCCCOc1nc2ccccc2nc1C(C#N)C(=O)NC1CCCCC1 (stereo unspecified)		inactive: 12.1%
CC1=CC(=C(C#N)C#N)C=C(C)N1Cc1ccccc1	inconclusive [inhibitor, partial curve, poor fit]	
COc1ccc(Br)cc1CNC(=O)C1CCN(S(=O)(=O)N2CCCCC2)CC1	inconclusive [inhibitor, partial curve, poor fit]	
Cc1cccc(Nc2nc(N3CCCCC3)nc(N3CCCCC3)n2)c1	inconclusive [inhibitor, single point]	
COC(=O)C1=C(CN2CCN(C)CC2)NC(=O)NC1c1cc(C)ccc1C (stereo unspecified)	inconclusive [inhibitor, single point]	
CN(C)c1ccc2nc3c(=O)[nH]c(=O)nc-3n(CC(O)C(O)C(O)CO)c2c1 (stereo unspecified)	active: 4.15 µM	
COC(=O)c1ccccc1NC(=O)CN1CCC(NC(=O)c2ccc(C)cc2)CC1	inconclusive [inhibitor, partial curve, poor fit]	
CCCCC1CCC(C(=O)Nc2ccc(S(=O)(=O)Nc3nccs3)cc2)CC1 (stereo unspecified)	inconclusive [inhibitor, single point]	
O=C(NCCC1=CCCCC1)c1ccc(-n2cncn2)c([N+](=O)[O-])c1	inconclusive [inhibitor, partial curve]	
COc1cc(C2NC(=O)NC(C)=C2C(=O)Nc2cccc(C)c2C)cc(OC)c1OC (stereo unspecified)	inconclusive [inhibitor, single point]	
COc1ccc([C@H]2CC(=O)C=C(c3ccc(CO)cc3)C2)cc1	inconclusive [inhibitor, single point]	
Cc1cccc(N2CCN(C(=O)CCCSc3nc4ccccc4[nH]3)CC2)c1C	inconclusive [inhibitor, single point]	

Structure (SMILES)	Potency	activity change, negative = inhibition
O=C(Nc1ccc(Cl)cc1)OCCn1nnnc1C(c1ccccc1Cl)N1CCOCC1 (stereo unspecified)	active: 14.7 µM	
O=C(c1ccc(-c2ccccc2)cc1)N1CCN(C(=O)c2ccco2)CC1	inconclusive [inhibitor, full curve, poor fit]	
COc1cc(C(CCN2CCOCC2)c2c(OC)cc(OC)c3c(C)cc(=O)oc23)cc(OC)c1OC (stereo unspecified)	active: 13.1 µM	
COC(=O)c1cc(C(=O)N2CCc3ccccc32)cc([N+](=O)[O-])c1		inactive: -0.515%
CN1CCc2nc(SCc3cccc(Br)c3)c(C#N)cc2C1	inconclusive [inhibitor, partial curve]	
O=C(Cn1c(=O)c2c(ncn2Cc2ccccc2)n(Cc2ccccc2)c1=O)N1CCCC1	inconclusive [inhibitor, full curve]	
N#CCSc1ccc2nc(-c3ccccc3)cn2n1		inactive: 134%
C/C(=N/NC(=O)c1cc(-c2cccc([N+](=O)[O-])c2)n[nH]1)c1ccc(Cl)cc1		inactive: 10.3%
COc1cccc(CN2CCNC(=O)C2CC(=O)NCCCn2ccnc2)c1 (stereo unspecified)		inactive: -5.38%
CCOC(=O)C1(C)Oc2ccc(S(=O)(=O)CC)cc2NC1=O (stereo unspecified)	inconclusive [inhibitor, single point]	
Cc1cc(C)cc(NC(=O)NCc2c(-c3ccccc3)noc2C)c1	inconclusive [inhibitor, partial curve, poor fit]	
CN1CCN(C(=S)c2ccc(Cl)cc2)CC1		inactive: 0%
COc1ccc(CN2CCCCCC2)cc1	inconclusive [inhibitor, single point]	
CCNC(=S)NNC(=O)c1c(Cl)c(C)nn1C		inactive: -3.27%
CN(c1ccccc1)S(=O)(=O)c1cccc(NC(=O)Cc2ccc(Cl)cc2)c1	active: 11.7 µM	
C[C@]12CCC(=O)C=C1CCC1C2C(=O)C[C@]2(C)C1CC[C@]2(O)C(=O)CO (stereo partly specified)		inactive: -5.67%
CCCCCc1nnc(NC(=O)c2ccc(N3CCCC3=O)cc2)s1		inactive: 9.41%
C=C(C)CSc1nc2sc3c(c2c(=O)n1C1CCCCC1)CCN(C)C3	active: 1.47 µM	
CCCc1cc(-n2ccnc2)n2c(nc3ccccc32)c1C#N	inconclusive [inhibitor, single point]	
COc1ccc(C(=O)C2CCCN(C3CSCCSC3)C2)c(OC)c1 (stereo unspecified)	inconclusive [inhibitor, partial curve]	
COc1ccc(CC(=O)Nc2cc(S(=O)(=O)N3CCCCC3)ccc2N2CCN(C)CC2)cc1	inconclusive [inhibitor, partial curve]	
CCc1ccc(CN2CCC(C(=O)Nc3cccc(-c4nnc(C)s4)c3)CC2)o1	inconclusive [inhibitor, single point]	
Cc1ccc(-n2cc(CNC(C)c3cnn(C)c3)c(-c3ccc(F)cc3)n2)cc1 (stereo unspecified)	inconclusive [inhibitor, single point]	
Cc1nc(-c2ccc(F)cc2)c(CC(=O)Nc2cccc(S(=O)(=O)N3CCOCC3)c2)s1	inconclusive [inhibitor, single point]	

Structure (SMILES)	Potency	activity change, negative = inhibition
O=C(CC1SC(N2CCCC2)=NC1=O)Nc1ccc(C(=O)NCc2ccc(F)cc2)cc1 (stereo unspecified)	inconclusive [inhibitor, single point]	
CCOCCCNC(=S)N1CCN(c2nc(-c3ccc(F)cc3)cs2)CC1	active: 9.28 µM	
COC(=O)C1=C(C)NC2=C(C(=O)CCC2)C1c1ccc(-c2ccsc2C(=O)OC)o1 (stereo unspecified)	inconclusive [inhibitor, single point]	
COc1ccccc1CNC(=O)COc1ccccc1C	inconclusive [inhibitor, single point]	
CCC(C)[C@H](NC(=O)N1CCn2c1nc1ccccc12)C(=O)NCc1ccc(OC)cc1 (stereo partly specified)	inconclusive [inhibitor, single point]	
Cn1c(=O)c2c(SCC(=O)N3CCCCC3)nc(-c3ccccc3F)nc2n(C)c1=O		inactive: 5.19%
OCC1(Cc2ccc(F)cc2)CCCN(CCCC(F)(F)F)C1 (stereo unspecified)	inconclusive [inhibitor, single point]	
COc1ccc(C(=O)COC(=O)c2sc(C)nc2C)cc1Cl	inconclusive [inhibitor, single point]	
CN(C)NC(=S)NC1CC2CCC1C2 (stereo unspecified)		inactive: -5.28%
O=C(NCc1ccco1)/C(=C/c1cccnc1)NC(=O)c1cccc(Br)c1	inconclusive [inhibitor, single point]	
Clc1ccc2oc(-c3cccnc3NCc3ccccc3)nc2c1		inactive: -17.6%
N#Cc1cccc(NC(=O)C2CCCN(C(=O)c3ccc(Cl)cc3)C2)c1 (stereo unspecified)	active: 9.28 µM	
COCCn1nnnc1CN1CCN(C(=O)c2ccco2)CC1		inactive: 7.16%
COC(=O)c1cccc(C23CC4(C2)[C@H](CN(CC2CCCCC2)[C@@H]4c2ccccc2)C3c2ccccc2)c1 (stereo partly specified)	active: 10.4 µM	
COc1ccc(C(=O)Nc2cc(-c3ccccc3)nn2-c2ccccc2F)cc1	inconclusive [inhibitor, partial curve, poor fit]	
ON=C1c2cc(OCCN3CCCCC3)ccc2-c2ccc(OCCN3CCCCC3)cc21	active: 1.65 µM	
CCOC(=O)c1c(-c2cccc3ccccc23)csc1NC(=O)C1C2CCC(O2)C1C(=O)O (stereo unspecified)	inconclusive [inhibitor, single point]	
CCOC(=O)c1c(NC(NC(=O)CF)C(Cl)(Cl)Cl)sc2c1CCCC2 (stereo unspecified)	inconclusive [inhibitor, partial curve]	
CCc1ccc(N(CC(=O)NCc2cccnc2)S(=O)(=O)c2ccccc2)cc1		inactive: 97.9%
C=CCN1C(=O)c2ccc(C(=O)N(CC)CC(=O)Nc3ccc(OC)cc3)cc2C1=O	inconclusive [inhibitor, partial curve, poor fit]	
O=C(/C=C/C=C/c1ccccc1)c1ccco1		inactive: 144%
CCC(C)c1ccc(NC(=S)N2CCCC2)cc1 (stereo unspecified)		inactive: 53.4%
Cc1ccc(S(=O)(=O)NCCc2nnc3ccc(SCc4cccnc4)nn23)cc1	inconclusive [inhibitor, single point]	
